Laboratory results taken from patent publication US20220339143A1, “TAK-925 FOR USE IN TREATING NARCOLEPSY” (Takeda Pharmaceutical Company Limited, priority 2019, published 2022).
The source gives many values for each of these; only a part stands here.

Assay: Plasma concentrations in healthy subjects (Cohort 4)
Type: in vivo, human
Experimental: Pharmacokinetics: Concentrations of Compound A in plasma, and CSF, and pharmacokinetics parameters.
Following a single 9-hour IV infusion of 112 mg to healthy adult subjects in Cohort 4, Compound A plasma concentration-time profile was consistent with that observed in Cohort 1. At 6 hours after the start of infusion, mean ratio CSF/plasma concentration of Compound A was estimated to be about 2.8%.

COC(=O)N1CCC[C@H](NS(C)(=O)=O)[C@@H]1CO[C@H]1CC[C@@H](c2ccccc2)CC1 [Compound A, methyl (2R,3S)-3-((methylsulfonyl)amino)-2-(((cis-4-phenylcyclohexyl)oxy)methyl)piperidine-1-carboxylate]
Plasma concentration (0.17 hr After End of Infusion, Mean): 113.0 ng/mL
Plasma concentration (0.17 hr After End of Infusion, Median): 110.0 ng/mL
Plasma concentration (0.33 hr After End of Infusion, Mean): 92.68 ng/mL
Plasma concentration (0.33 hr After End of Infusion, Median): 94.70 ng/mL
Plasma concentration (0.5 hr After End of Infusion, Mean): 85.58 ng/mL
Plasma concentration (0.5 hr After End of Infusion, Median): 88.85 ng/mL
Plasma concentration (0.75 hr After End of Infusion, Mean): 72.88 ng/mL
Plasma concentration (0.75 hr After End of Infusion, Median): 73.60 ng/mL
Plasma concentration (1 hr After End of Infusion, Mean): 60.93 ng/mL
Plasma concentration (1 hr After End of Infusion, Median): 61.15 ng/mL
Plasma concentration (1.5 hr After End of Infusions, Mean): 46.63 ng/mL
Plasma concentration (1.5 hr After End of Infusions, Median): 45.80 ng/mL
Plasma concentration (2 hr After End of Infusions, Mean): 30.58 ng/mL
Plasma concentration (2 hr After End of Infusions, Median): 31.25 ng/mL
Plasma concentration (3 hr After End of Infusions, Mean): 22.13 ng/mL
Plasma concentration (3 hr After End of Infusions, Median): 22.25 ng/mL
Plasma concentration (4 hr After End of Infusions, Mean): 16.33 ng/mL
Plasma concentration (4 hr After End of Infusions, Median): 16.35 ng/mL
Plasma concentration (6 hr After End of Infusions, Mean): 7.968 ng/mL
Plasma concentration (6 hr After End of Infusions, Median): 7.980 ng/mL
Plasma concentration (10 hr After End of Infusions, Mean): 5.365 ng/mL
Plasma concentration (10 hr After End of Infusions, Median): 4.240 ng/mL
Plasma concentration (15 hr After End of Infusions, Mean): 2.445 ng/mL
Plasma concentration (15 hr After End of Infusions, Median): 1.380 ng/mL
Plasma concentration (Predose, Mean): 0.000 ng/mL
Plasma concentration (Predose, Median): 0.000 ng/mL
